The values below come from paper PMC4336329 (PLoS ONE, 2015).

The whole screen tested about 310,000 compounds, of which about 14,000 (4.5%) showed an effect of 50% or more. The effect is printed as a negative number. The list shows a part of the results.
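Note: peak tail current of the secondary pulse compared with the same well before compound.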

In this assay the target is human ether-à-go-go-related gene (hERG) potassium channel (human, UniProt Q12809). The experiment in a line: primary screen, population patch clamp on CHO cells stably expressing hERG.
Sequence of human ether-à-go-go-related gene (hERG) potassium channel (Q12809 whole entry, looked up): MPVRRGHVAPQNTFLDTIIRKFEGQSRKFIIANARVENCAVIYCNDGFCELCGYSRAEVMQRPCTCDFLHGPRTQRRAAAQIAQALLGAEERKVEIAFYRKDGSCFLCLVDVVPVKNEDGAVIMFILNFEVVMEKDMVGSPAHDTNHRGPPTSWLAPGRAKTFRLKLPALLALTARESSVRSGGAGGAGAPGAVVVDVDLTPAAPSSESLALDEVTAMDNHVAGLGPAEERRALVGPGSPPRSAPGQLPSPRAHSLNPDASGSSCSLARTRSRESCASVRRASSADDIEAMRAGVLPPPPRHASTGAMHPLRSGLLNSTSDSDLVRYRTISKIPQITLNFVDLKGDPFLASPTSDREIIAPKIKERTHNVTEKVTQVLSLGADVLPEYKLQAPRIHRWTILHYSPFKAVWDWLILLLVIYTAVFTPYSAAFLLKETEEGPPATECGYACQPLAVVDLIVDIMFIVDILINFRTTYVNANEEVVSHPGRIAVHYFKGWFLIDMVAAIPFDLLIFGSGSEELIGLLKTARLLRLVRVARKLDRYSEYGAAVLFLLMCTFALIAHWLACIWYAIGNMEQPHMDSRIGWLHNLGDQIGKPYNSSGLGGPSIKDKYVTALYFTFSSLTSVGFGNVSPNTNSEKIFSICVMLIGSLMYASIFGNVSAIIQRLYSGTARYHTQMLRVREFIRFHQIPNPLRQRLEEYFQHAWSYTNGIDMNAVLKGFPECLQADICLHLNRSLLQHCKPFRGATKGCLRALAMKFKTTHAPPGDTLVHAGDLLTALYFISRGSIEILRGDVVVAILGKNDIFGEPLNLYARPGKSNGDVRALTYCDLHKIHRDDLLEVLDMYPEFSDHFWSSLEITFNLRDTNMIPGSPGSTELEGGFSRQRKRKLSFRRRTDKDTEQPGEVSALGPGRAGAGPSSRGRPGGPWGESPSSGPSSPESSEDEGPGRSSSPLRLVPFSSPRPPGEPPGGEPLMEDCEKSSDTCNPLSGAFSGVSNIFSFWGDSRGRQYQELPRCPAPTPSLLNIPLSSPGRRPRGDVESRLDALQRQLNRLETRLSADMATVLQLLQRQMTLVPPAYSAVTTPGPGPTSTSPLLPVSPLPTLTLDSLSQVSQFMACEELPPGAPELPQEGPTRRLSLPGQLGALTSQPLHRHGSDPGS
With `CC(C)(C)C(=O)CSc1ccc(S(=O)(=O)N2CCCC2)cn1`, the “hERG current change (%, negative = inhibition) at 10uM” value is on record as -4.91%.

With `CNC(=S)NC1CC2CCC(C1)N2Cc1ccccc1` (centres unmarked), the “hERG current change (%, negative = inhibition) at 10uM” value was -16.5%.

Regarding `Cc1ccc(OCC(=O)NCCCNC(=O)c2ccco2)cc1C`, the “hERG current change (%, negative = inhibition) at 10uM” value is recorded as 14.6%.

On to `Cn1ccc(NC(=O)Nc2cccc(C(F)(F)F)c2)n1`, for which the “hERG current change (%, negative = inhibition) at 10uM” value was -23%.

As to `CCN(CC)S(=O)(=O)c1ccc(Cl)c(NC(=O)c2ccncc2)c1`, the “hERG current change (%, negative = inhibition) at 10uM” value is on record as -49.9%.

Consider `Cc1cc(=O)oc2cc(OCC(=O)c3ccccc3)ccc12`, for which the “hERG current change (%, negative = inhibition) at 10uM” value turned out to be 10.9%.

With `CC1(C)Cc2c(sc(NC(=O)Nc3ccccc3)c2C(N)=O)CO1`, the “hERG current change (%, negative = inhibition) at 10uM” value was 12.9%.

With `CCn1c(=O)c2ccccc2n(Cc2ccccc2C)c1=O`, the “hERG current change (%, negative = inhibition) at 10uM” value was -4.05%.

In the case of `COc1cc(C2C(C#N)=C(N)OC3=C2C(=O)CC(C)(C)C3)cc([N+](=O)[O-])c1O` (centres unmarked), the “hERG current change (%, negative = inhibition) at 10uM” value is given as -11.2%.

Take `COc1ccc2[nH]c(=O)c(CN(Cc3nnnn3Cc3ccco3)C3CCCCC3)cc2c1`: the “hERG current change (%, negative = inhibition) at 10uM” value was -24.9%.

Consider `CC(=O)Nc1ccc(NC(=O)c2ccccc2N(C)S(=O)(=O)c2ccccc2)cc1`, for which the “hERG current change (%, negative = inhibition) at 10uM” value is given as 24.3%.

Regarding `Cc1ccc(C(=O)CSC2=C(C#N)C(c3ccco3)C3=C(CCCC3=O)N2)cc1` (centres unmarked), the “hERG current change (%, negative = inhibition) at 10uM” value is -15.8%.

With `COc1ccc2oc(C(=O)NN3C(C)CCCC3C)c(C)c2c1` (centres unmarked), the “hERG current change (%, negative = inhibition) at 10uM” value is 16.1%.

With `CCN1CCN(C(=O)CCc2ccc(S(=O)(=O)NCCc3ccccc3)cc2)CC1`, the “hERG current change (%, negative = inhibition) at 10uM” value is listed as -2.7%.

With `CC(NC(=O)c1ccc(C(C)(C)C)cc1)C(c1cccs1)N1CCOCC1` (centres unmarked), the “hERG current change (%, negative = inhibition) at 10uM” value is -1.51%.

Turning to `CC(C)c1nnc(NC(=O)CCC2CCCCC2)s1`, the “hERG current change (%, negative = inhibition) at 10uM” value came to 17.4%.

Regarding `COc1cc2c(cc1O)CCN(C(=O)CSc1nncn1C)[C@@H]2C`, the “hERG current change (%, negative = inhibition) at 10uM” value came out at 11.5%.

Regarding `Cc1nnc(NC(=O)CN2CCN(Cc3ccc(F)cc3Cl)CC2)s1`, the “hERG current change (%, negative = inhibition) at 10uM” value is recorded as 8.45%.

For the compound `CCOc1ccccc1NC(=O)N1CCCC1C(=O)Nc1ccc(-n2cnnn2)c(C)c1` (centres unmarked), the “hERG current change (%, negative = inhibition) at 10uM” value is -26.8%.

On to `COC(=O)c1onc(C(=O)c2ccccc2)c1C(=O)OC`, for which the “hERG current change (%, negative = inhibition) at 10uM” value is 8.73%.

For the compound `COc1ccc(S(=O)(=O)N2CCc3ccccc32)cc1C(=O)OCc1c(C)noc1C`, the “hERG current change (%, negative = inhibition) at 10uM” value is -6.18%.

With `C/C(N)=N\S(=O)(=O)c1ccc(Cl)cc1`, the “hERG current change (%, negative = inhibition) at 10uM” value stood at 6.53%.

As to `Cn1cc(C(=O)c2cccc(Cl)c2)cc1/C=N\O`, the “hERG current change (%, negative = inhibition) at 10uM” value is recorded as -28%.

In the case of `COc1ccccc1CNC(=S)Nc1ccc(F)cc1`, the “hERG current change (%, negative = inhibition) at 10uM” value is 6.39%.

In the case of `Cc1ccc(NC(=O)CSc2nnc(-c3ccccn3)n2N)c(Br)c1`, the “hERG current change (%, negative = inhibition) at 10uM” value is reported as -16.1%.

Regarding `Cc1ccc(S(=O)(=O)N2CCCCC2CCNC(=O)C(=O)NCc2cccnc2)cc1` (centres unmarked), the “hERG current change (%, negative = inhibition) at 10uM” value is -22.7%.

For `O=C(CC1CS(=O)(=O)CC1CC(=O)Oc1ccccc1F)Oc1ccccc1F` (centres unmarked), the “hERG current change (%, negative = inhibition) at 10uM” value is 1.91%.

`COc1ccc(NC(=S)N2CCN(c3ccc([N+](=O)[O-])cc3)CC2)cc1OC`: the “hERG current change (%, negative = inhibition) at 10uM” value is reported as -77.3%.

Consider `CCCCn1c(N)c(N(CC(C)C)C(=O)c2ccc(-c3ccc(C(C)=O)cc3)o2)c(=O)[nH]c1=O`, for which the “hERG current change (%, negative = inhibition) at 10uM” value amounted to 6.68%.

For `CCn1c(CC(=O)Nc2ccc(F)cc2)nnc1SCC(=O)NC1=NCCS1`, the “hERG current change (%, negative = inhibition) at 10uM” value came out at 7.98%.

Regarding `CC(=O)Nc1ccc(C(=O)OC2CCOC2=O)cc1` (centres unmarked), the “hERG current change (%, negative = inhibition) at 10uM” value is recorded as 12.5%.

In the case of `Cn1c(CO)nc2c3ccccc3ccc21`, the “hERG current change (%, negative = inhibition) at 10uM” value was 10.6%.

Turning to `CCCCN(C(=O)c1ccccc1OCc1ccc(F)cc1)c1c(N)n(CCC)c(=O)[nH]c1=O`, the “hERG current change (%, negative = inhibition) at 10uM” value worked out at 17.1%.

As for `COc1ccc(OCC(=O)Nc2nnc(S(=O)(=O)N3CCCCCC3)s2)cc1`, the “hERG current change (%, negative = inhibition) at 10uM” value stood at 12.3%.

Take `CCOc1ccc2nc(NC(=O)c3c([N+](=O)[O-])cnn3CC)sc2c1`: the “hERG current change (%, negative = inhibition) at 10uM” value is given as 2.81%.

Turning to `Cc1ccc(NC(=O)C(=O)NCCCN2CC(C(=O)O)CC2=O)cc1` (centres unmarked), the “hERG current change (%, negative = inhibition) at 10uM” value is given as 17.2%.

For `Cc1cc(C)c(C)c(OCCN2CCOCC2)c1`, the “hERG current change (%, negative = inhibition) at 10uM” value was 1.23%.

Regarding `COc1cccc(-c2ncc3ccccc3c2COC(=O)N(C)C)c1`, the “hERG current change (%, negative = inhibition) at 10uM” value is given as -3.98%.

For `CCN(CC)C(=O)NCc1c(C)cc(C)cc1C`, the “hERG current change (%, negative = inhibition) at 10uM” value was determined as 8.98%.

Turning to `O=C(Cn1nnc2ccccc21)Nc1ccc([N+](=O)[O-])cc1`, the “hERG current change (%, negative = inhibition) at 10uM” value is listed as 12.7%.

For `COc1ccccc1NC(=O)c1sc2nc(C)cc(C)c2c1N`, the “hERG current change (%, negative = inhibition) at 10uM” value worked out at 5.36%.

As to `Cl.O=C(Nc1ccc(N2CCN(Cc3ccccc3F)CC2)cc1)c1ccccc1[N+](=O)[O-]`, the “hERG current change (%, negative = inhibition) at 10uM” value was 8%.

Regarding `CCC(C)Nc1cc(C)c(C#N)c2nc3ccccc3n12` (centres unmarked), the “hERG current change (%, negative = inhibition) at 10uM” value is -39.4%.

Take `CCCc1cc(=O)[nH]c(SCc2nc3ccccc3s2)n1`: the “hERG current change (%, negative = inhibition) at 10uM” value was -3.71%.
